Measurements reported in the supplement of paper PMC4604168 (melanoma cell lines).
This is one part of the list. Single values are uncertain, as repeats are few or missing.

test system: 501Mel; assay: cell count relative to DMSO control; melanoma cells; higher = more viable cells; details: library dose: low library concentration; 72 h
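Also: cell number obtained by counting DAPI-stained nuclei in high-throughput microscope images with image analysis software, screen run in 1,536-well plates.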

Compound	cell count [%]
O=C(/C=C/c1cccnc1)NCCCCC1CCN(C(=O)c2ccccc2)CC1 + O=C(O)[C@@H]1[O][Sb](=[O])([O][Sb]2(=[O])[O][C@H]([C@H](O)CO)[C@H](O)[C@H](C(=O)O)[O]2)[O][C@H]([C@H](O)CO)[C@@H]1O [stibogluconate] (first compound 0.01 µM, partner dose 2 µM)	95.8
Cc1ccc(Nc2nccc(N(C)c3ccc4c(C)n(C)nc4c3)n2)cc1S(N)(=O)=O [Pazopanib] + OCCn1cc(-c2cnc3nnn(Cc4ccc5ncccc5c4)c3n2)cn1 [PF04217903] (first compound 0.4 µM, partner dose 1 µM)	93.5
Cc1ccc(Nc2nccc(N(C)c3ccc4c(C)n(C)nc4c3)n2)cc1S(N)(=O)=O [Pazopanib] + NCC(=O)Nc1ccc(-n2nc(C(F)(F)F)cc2-c2ccc3c(ccc4ccccc43)c2)cc1 [OSU03012] (first compound 0.4 µM, partner dose 1 µM)	52.2
CC1(C)CCC(c2ccc(Cl)cc2)=C(CN2CCN(c3ccc(C(=O)NS(=O)(=O)c4ccc(N[C@H](CCN5CCOCC5)CSc5ccccc5)c(S(=O)(=O)C(F)(F)F)c4)cc3)CC2)C1 + OCc1c[nH]c2ccccc12 [Indole-3-carbinol] (first compound 0.4 µM, partner dose 0.8 µM)	56.3
O=C(/C=C/c1cccnc1)NCCCCC1CCN(C(=O)c2ccccc2)CC1 + C[C@@H](N)c1ccc(C(=O)Nc2ccnc3[nH]ccc23)cc1 [RKI983] (first compound 0.01 µM, partner dose 0.4 µM)	66.6
O=C(/C=C/c1cccnc1)NCCCCC1CCN(C(=O)c2ccccc2)CC1 + CC(C)(C)c1cnc(CSc2cnc(NC(=O)C3CCNCC3)s2)o1 [SNS-032] (first compound 0.01 µM, partner dose 0.01 µM)	98.9
Cc1ccc(Nc2nccc(N(C)c3ccc4c(C)n(C)nc4c3)n2)cc1S(N)(=O)=O [Pazopanib] + Cn1cncc1[C@@](N)(c1ccc(Cl)cc1)c1ccc2c(c1)c(-c1cccc(Cl)c1)cc(=O)n2C [tipifarnib] (first compound 0.4 µM, partner dose 0.01 µM)	83.3
O=C(/C=C/c1cccnc1)NCCCCC1CCN(C(=O)c2ccccc2)CC1 + C[C@@H]1CCN(C(=O)CC#N)C[C@@H]1N(C)c1ncnc2[nH]ccc12 [CP690550] (first compound 0.01 µM, partner dose 1 µM)	81.8
Cc1ccc(Nc2nccc(N(C)c3ccc4c(C)n(C)nc4c3)n2)cc1S(N)(=O)=O [Pazopanib] + COCC[n+]1c2c(n(Cc3cnccn3)c1C)C(=O)c1ccccc1C2=O [YM155] (first compound 0.4 µM, partner dose 0.0004 µM)	111
Cc1ccc(Nc2nccc(N(C)c3ccc4c(C)n(C)nc4c3)n2)cc1S(N)(=O)=O [Pazopanib] + CN(NC(=O)CC(=O)NN(C)C(=S)c1ccccc1)C(=S)c1ccccc1 [STA4783] (first compound 0.4 µM, partner dose 0.006 µM)	42.8
CC1(C)CCC(c2ccc(Cl)cc2)=C(CN2CCN(c3ccc(C(=O)NS(=O)(=O)c4ccc(N[C@H](CCN5CCOCC5)CSc5ccccc5)c(S(=O)(=O)C(F)(F)F)c4)cc3)CC2)C1 + C=C(c1ccc(C(=O)O)cc1)c1cc2c(cc1C)C(C)(C)CCC2(C)C [Bexarotene] (first compound 0.4 µM, partner dose 2 µM)	45.1
Cc1ccc(Nc2nccc(N(C)c3ccc4c(C)n(C)nc4c3)n2)cc1S(N)(=O)=O [Pazopanib] + Nc1ccn([C@@H]2O[C@H](CO)[C@@H](O)C2(F)F)c(=O)n1 [gemcitabine] (first compound 0.4 µM, partner dose 0.0004 µM)	100
Cc1ccc(Nc2nccc(N(C)c3ccc4c(C)n(C)nc4c3)n2)cc1S(N)(=O)=O [Pazopanib] + Clc1ccc(Nc2nnc(Cc3ccncc3)c3ccccc23)cc1 [vatalanib] (first compound 0.4 µM, partner dose 2 µM)	100
O=C(/C=C/c1cccnc1)NCCCCC1CCN(C(=O)c2ccccc2)CC1 + CC(C)C[C@H](NC(=O)[C@H](Cc1ccccc1)NC(=O)c1cnccn1)B(O)O [Bortezomib] (first compound 0.01 µM, partner dose 0.001 µM)	70.9
